The list shows a part of the results. The full chains were built here from the parent and the listed change. Values near 0.05 are background.
B1: TEV protease; numbered along this chain (parent)
chain: MGESLFKGPRDYNPISSSICHLTNESDGHTTSLYGIGFGPFIITNKHLFRRNNGTLVVQSLHGVFKVKDTTTLQQHLVDGRDMIIIRMPKDFPPFPQKLKFREPQREERICLVTTNFQTKSMSSMVSDTSCTFPSGDGIFWKHWIQTKDGQCGSPLVSTRDGFIVGIHSASNFTNTNNYFTSVPKNFMELLTNQEAQQWVSGWRLNADSVLWGGHKVFMVKPEEPFQPVKEATQL

Variants of: B1
Experiment: raw area under fraction-flipped curve 0-4 h after induction (AUC4h, not background-subtracted), DNA-recorder readout of cleavage of the substrate (dimensionless); higher = more cleavage of the substrate by the protease variant
Settings: temperature: 34 °C; time window: 0-4 h after rhamnose induction
Method: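 In vivo DNA recorder in E. coli TOP10(DE3) ΔrhaA at 34 °C. Each TEVp single-site mutant (parent TEVp 0) is paired with a single-site variant of the 7-mer TEVs (canonical ENLYFQ|S). The substrate sits between flexible linkers in a Bxb1-sfGFP-TEVs-SsrA fusion, so cleavage stabilises Bxb1 and speeds flipping of a recombination array, read by NGS. The value is the raw area under the fraction-flipped curve over 0-4 h after rhamnose induction (AUC4h), with ≥20 reads per time point. It is not background-subtracted; inactive controls average about 0.047.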
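Note: Bxb1 expression induced with 0.2% (w/v) L-rhamnose at OD600 near 0.5, cultures sampled hourly, flipped fraction per protease–substrate barcode pair counted by paired-end Illumina sequencing.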

Variant | area with substrate ENLYAQS | area with substrate ENLYCQS | area with substrate ENLYDQS | area with substrate ENLYEQS | area with substrate ENLYGQS | area with substrate ENLYHQS | area with substrate ENLYIQS | area with substrate ENLYKQS | area with substrate ENLYLQS | area with substrate ENLYMQS | area with substrate ENLYNQS | area with substrate ENLYPQS | area with substrate ENLYQQS | area with substrate ENLYSQS | area with substrate ENLYTQS | area with substrate ENLYVQS | area with substrate ENLYWQS | area with substrate ENLYYQS | area with substrate ENLYRQS
I36P | 0.0174 | 0.0434 | 0.0423 | 0.0474 | 0.0374 | 0.0371 | 0.0417 | 0.0311 | 0.0401 | 0.0418 | 0.0398 | 0.0315 | 0.046 | 0.0334 | 0.0207 | 0.0476 | 0.0428 | 0.0433 | –
H47G | 0.0529 | – | 0.0559 | 0.0569 | 0.0618 | 0.0519 | – | 0.0662 | 0.0587 | 0.0531 | 0.0543 | 0.069 | 0.0758 | 0.0645 | 0.0588 | 0.0147 | 0.0581 | 0.0658 | 0.0529
N45W | 0.0208 | – | 0.0689 | 0.0721 | 0.0571 | 0.0604 | 0.0571 | 0.0603 | 0.061 | 0.055 | 0.0613 | 0.0628 | 0.0633 | 0.0518 | – | 0.0623 | 0.0646 | – | 0.0666
L56G | 0.05 | – | 0.0598 | 0.0526 | 0.0274 | 0.0538 | – | – | – | 0.0459 | 0.048 | 0.037 | 0.0493 | – | 0.0499 | – | 0.0656 | – | 0.0561
L56F | 0.0688 | 0.0554 | 0.0681 | 0.0323 | 0.0641 | 0.0641 | 0.106 | 0.0457 | 0.0661 | 0.0646 | 0.0665 | 0.0691 | 0.0622 | 0.0636 | 0.0754 | 0.0953 | 0.0627 | 0.0755 | 0.0897
G63W | 0.0811 | 0.0822 | 0.0513 | 0.0563 | 0.0642 | 0.0578 | – | 0.0543 | 0.0761 | 0.119 | 0.0569 | 0.0728 | 0.0593 | 0.08 | 0.0665 | 0.0961 | 0.0547 | 0.0566 | 0.0667
N52G | 0.0568 | – | 0.0912 | 0.0625 | 0.065 | 0.0474 | – | 0.0521 | 0.0677 | 0.067 | 0.0571 | 0.0592 | 0.0536 | – | 0.067 | 0.0816 | 0.0644 | 0.0476 | 0.0562
T31Q | 0.0696 | – | 0.0541 | 0.0608 | – | 0.0654 | – | – | 0.0612 | 0.0732 | – | 0.0703 | 0.0838 | – | – | – | 0.123 | – | 0.0474
S16K | 0.111 | – | 0.0671 | 0.0727 | 0.0601 | 0.0839 | 0.148 | 0.0475 | – | 0.101 | 0.0683 | – | 0.048 | 0.067 | – | 0.148 | 0.0969 | – | 0.0562
S4L | 0.071 | 0.0654 | 0.0563 | 0.0667 | 0.0653 | 0.058 | 0.0905 | 0.0471 | – | 0.0682 | 0.0654 | 0.0611 | 0.024 | 0.0678 | – | 0.079 | 0.0799 | 0.0678 | 0.0631
L33S | 0.0595 | – | 0.057 | 0.06 | 0.0539 | 0.0696 | 0.0806 | 0.0308 | 0.0602 | 0.0748 | 0.0605 | 0.0625 | 0.0627 | 0.0755 | – | 0.0943 | 0.0726 | 0.0613 | 0.053
